From the RNAGym collection of RNA variant scans (doi:10.7554/elife.90254)
The source gives no read counts; variants with many changes may rest on few reads.

B1: LINE1-mini (parent)
chain: GGCAGAGCUCAACACAGCGUGGCAAAGUGGCUGUGGCUAGACUGCC

Variants of: B1
Test: self-cleavage, relative activity (ratio to wild type); higher = more cleavage; in vitro, sequencing; the parent is a self-cleaving ribozyme

Variant | self-cleavage
G7A G35A U38C | 0.21
G7A G19U A24C | 0.1
G7A G19C G27U | 0.04
G7A G19C G27A | 0.04
G7A G19U C23G G40U C46U | 0.06
G7A G21U U38G G40U | 0.01
G7A G21C U43A | 0.08
G7A G27U G35C | 0.15
G7A C18U C45U | 0.16
G7A C15A C23G G27A | 0.14
G7A G29U G44U | 0.16
G7A C15U U20G C23A A26G | 0.22
G7A C23G A24C G33A G35C G44U | 0.05
G7A C18U G33U C42U G44A C46G | 0.04
G7A G17C G22U C46U | 0.19
G7A G22A C31U U32A | 0.01
G7A G44A C46A | 0.7
G7A C23U G27A G40C | 0.3
G7A C18A C23U | 0.14
G7A C18A A26G U43C | 0.01
G7A C15A G19A A24G A41C | 0.06
G7A G29A C37A U43A | 0.72
G7A C15U C23U A41G | 0.09
G7A G33A C37A | 0.04

Variant | self-cleavage
G7A G19A A39G | 0.09
G7A G40A C45U | 0.2
G7A C31A C45G | 0.21
G7A G22A G33U | 0.07
G7A G21U A24G G29U C45G | 0.06
G7A C18A G36U C37U | 0.01
G7A U9A C10U C31A | 0.04
G7A U9A A11C G30A C31A | 0.02
G7A G17U A39C | 0.01
G7A G29U C31A A41G | 0.15
G7A G30C G36A | 0.38
G7A C37A G40C | 0.12
G7A G17U A25G | 0.04
G7A C15U A26U G36A C45G | 0.23
G7A G19C U20C A25C C42U | 0.04
G7A G21U G27U | 0.1
G7A G17A G27C | 0.12
G7A G19A G30U | 0.11
G7A G22C A41G | 0.25
G7A C37A C46U | 0.06
G7A G21U U34C | 0.07
G7A C15U C46A | 0.11
G7A C18G U32C | 0.11
G7A G17A G22C G29A | 0.11

Variant | self-cleavage
G7A G22A G40A | 0.09
G7A C23U A25G | 0.13
G7A C23U U38G G40U | 0.01
G7A G27A G40U C45G | 0.12
G7A G22U A26G G33C | 0.05
G7A G21C C45U | 0.05
G7A G21U G29C A39G | 0.01
G7A C18A U32G U38G | 0.02
G7A G21C G35U G40A A41U | 0.21
G7A G17A G21C | 0.42
G7A G22A A25C A26U | 0.27
G7A C18G A26C | 0.09
G7A C15G C18U G29C G33A | 0.03
G7A G17C G29C | 0.06
G7A C18G C23U G29U G35U G36A | 0.07
G7A C15U G27C C31G | 0.15
G7A G36A C42G | 0.17
G7A C15G A41C | 0.39
G7A G35U C37U | 0.01
G7A C15U G21A A41U | 0.05
G7A G29U G30A C45A C46A | 0.21
G7A G19U G30U A39C | 1.22
G7A G19U C37G | 0.03
G7A G21C U34C | 0.09

Variant | self-cleavage
G7A G17C U38C | 0.11
G7A G33C G44A | 0.04
G7A U9A A26C G40U | 0.04
G7A G30U C31A G33U | 0.64
G7A G21C C46A | 0.04
G7A U9A C15U G21A G27U A39G C42U | 0.7
G7A C18A G27C G30A G33U | 0.03
G7A G17C G21C C31G | 0.01
G7A C15G C23A G30C C31G | 0.5
G7A G21U G22U U32A A41G | 0.06
G7A U9A C23A U43C | 0.11
G7A C15A G17U G35A | 0.07
G7A G27U G33A | 0.07
G7A G27U G33U | 0.37
G7A C15U G36U | 0.1
G7A C18U G21A G30A | 0.08
G7A G29A C31A C42A | 0.28
G7A C15U G27A U38C | 0.11
G7A G29A A41G | 0.19
G7A G17C G22A A26C G27A G36A C37G | 0.02
G7A C15G G17U G21U G33C | 0.02
G7A U9A A25G G33U U38A | 0.17
G7A G21U U28C C45U | 0.12
G7A C23U G33U | 0.06

Variant | self-cleavage
G7A C18U U34G | 0.04
G7A C18G C42A | 0.07
G7A G19A G33C G36C | 0.05
G7A G21C C37U C45A | 0.04
G7A G29U A39G | 0.08
G7A G17C G27U G35U C45U | 0.1
G7A C31G U43A | 0.09
G7A C18A A24G A39G | 0.03
G7A C18A C31U G35U G44A | 0.03
G7A C31U C37U | 0.04
G7A G35A C45G | 0.18
G7A C15G C37A A41G G44U C45A | 0.07
G7A C15A G22A G30A | 0.1
G7A G33U G44U | 0.1
G7A G19A G44A | 0.61
G7A U9A C18A G40A | 0.03
G7A G17A A26U C31U G33U G44U | 0.21
G7A C18A A24G U28C U38C | 0.11
G7A G19U G22A G33A A41G C45A | 0.22
G7A G27A C37U C42A | 0.03
G7A G21C G35C | 0.04
G7A G17U G40A | 0.06
G7A G33C U34A C42U | 0.13
G7A G29U C31U | 0.07

Variant | self-cleavage
G7A C15G G17U U32G G36U | 0.08
G7A G30U U38G | 0.01
G7A G19C C46A | 0.25
G7A C23U G40U | 0.23
G7A C18A G21U A41G | 0.1
G7A G29C G40C | 0.08
G7A C18A G21U | 0.49
G7A G21U A41C C42G | 0.05
G7A C37U G40U | 0.1
G7A G30A G40U A41C | 0.11
G7A C15G G29C G35U C46U | 0.02
G7A G21C C23A C31U U32C U34G G36U | 0.14
G7A G36U U38A | 0.02
G7A G22C A26U | 0.3
G7A C15A G33C C37U | 0.4
G7A C18A C31U G36A | 0.07
G7A C18G G44U | 0.02
G7A C23A A25U G40A | 0.46
G7A G40C U43A C45G C46U | 0.01
G7A G29A G30C U38A | 0.06
G7A G22U G40C | 0.35
G7A G40U A41C | 0.73
G7A G19C U20A U32G C42G | 0.02
G7A G19U U28C G29C G30C G40A C45U | 0.12

Variant | self-cleavage
G7A G17C U20G C37G | 0.05
G7A C15G U20A | 0.02
G7A G21U G27A U38A G44U | 0.05
G7A C18A U38A C45A | 0.13
G7A G33C A41U C42G | 0.06
G7A G29C G33A | 0.14
G7A G17C A24U U28G | 0.15
G7A G21A C31G G36C A41U | 0.04
G7A C15A G17A G21A | 0.3
G7A C31A G33C | 0.28
G7A C15G A26U G36A | 0.09
G7A C18U C23A G29A C31U | 0.03
G7A U9A C13U G36A | 0.52
G7A G17A G30U G44U | 0.06
G7A C15U C23G G36U | 0.47
G7A G35A G44A | 0.12
G7A C15A G19U G30A A41U C46G | 0.08
G7A C18U G35A C42A | 0.11
G7A G22C U28C | 0.01
G7A C18G G29U | 0.06
G7A C18U G22A G29A U32A | 0.09
G7A C37U C45U | 0.02
G7A C15G G35C C42U | 0.21
